Measurements reported in PubChem BioAssay AID485281 (National Center for Advancing Translational Sciences (NCATS), 2010).
The campaign covered roughly 350,000 compounds. About 260 (0.074%) were called active. Inconclusive results, whose numbers are uncertain, are shown with a selection of clear calls. Calls come from the whole dose curve; as a rule, active = well fitted inhibition curve with a large enough effect; inconclusive = small, poorly fitted or top-dose-only effect; inactive = no such curve, though single readings can be large or run the other way. Where the call is inconclusive, the potency comes from a doubtful curve fit.

Molecular target: Ferritin light chain (Equus caballus) (UniProt P02791)
Assay: qHTS Assay for Identification of Novel General Anesthetics; note: nearly all actives have a fitted effect of over 20% in size
Details: apoferritin/1-aminoanthracene competitive binding, fluorescence; series mostly up to 77.5 µM
How it was run: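 Horse-spleen apoferritin (10 uM) was mixed with 50% saturated 1-aminoanthracene in PBS, exposed to compounds for 10 min at room temperature, and read for fluorescence (ex 380 nm, em 535 nm). Competitive displacement was fitted with a four-parameter Hill equation.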
Potency is the fitted concentration of half-maximal effect; tags give direction and shape of the fitted curve.

UniProt P02791, sequence (P02791 whole entry, looked up): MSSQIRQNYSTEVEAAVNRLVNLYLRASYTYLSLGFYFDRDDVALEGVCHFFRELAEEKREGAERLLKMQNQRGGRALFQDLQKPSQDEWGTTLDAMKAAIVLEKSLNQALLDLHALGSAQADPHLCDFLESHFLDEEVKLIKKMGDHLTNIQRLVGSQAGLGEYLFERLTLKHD

Potency, inactive:
CC(=O)C(C)Oc1ccc2c3c(c(=O)oc2c1)CCCCC3 (stereo not given)
CC(=O)N1c2ccc(Cl)cc2C2C=CCC2C1c1cccc2ccccc12 (stereo not given)
COc1ccc(-c2noc(CN3CCCCC3c3nccn3C)n2)cc1 (stereo not given)
CCOC(=O)CNC(=O)CNC(=O)c1ccc(OC)cc1
CN(C)/C=N/c1c(C#N)cnn1-c1ccc(F)c(Cl)c1
COc1ccc(C)cc1Nc1n[n+](-c2ccccc2)c(-c2cc([N+](=O)[O-])cc(OC)c2O)s1
CCOCCCNC(=O)C(NC(=O)c1ccc2c(c1)OCO2)c1ccc(Cl)cc1 (stereo not given)
Clc1ccc(CNc2cc(-c3ccccc3)nc3nncn23)cc1
N#Cc1c(Nc2cccc(F)c2)sc(C(=O)c2ccc(Cl)cc2)c1N
O=C(N[C@@H](Cc1ccccc1)C(=O)NC1CCCCCC1)c1ccco1
Cc1cc(C)cc(-n2ccn(Cc3ccc(F)cc3)c(=O)c2=O)c1
Cc1cccc(C)c1Nc1c(-c2ccc(O)cc2)nc2sccn12
CC(=O)NCCOc1cccc2ccccc12
O=C(Oc1cc(-c2ccccc2)no1)c1ccc(Cl)cc1
CCCc1nc(SCC(=O)Nc2nc3c(s2)CCCC3)c2ccccc2n1

Potency, inconclusive:
CC(C)(C)OC(=O)N1CCC(NC(=O)c2nc[nH]c2C(=O)NCC(=O)OCc2ccccc2)CC1 35.5 µM [inhibitor, single point]
Cc1ccc(C)c(Cn2nnc3c(=O)[nH]c(C4CCCN(C(=O)C5CCC5)C4)nc32)c1 (stereo not given) 28.2 µM [inhibitor, partial curve]
CCOC(=O)c1cccc(NC(=O)C(Cc2ccccc2)NS(=O)(=O)c2cccc3nsnc23)c1 (stereo not given) 12.6 µM [inhibitor, partial curve]
COc1cc(CNCCc2ccc(F)cc2)ccc1OCc1ccc(Cl)nc1 31.6 µM [inhibitor, partial curve]
O=C(CSc1ccccc1)Nc1cccc(NC(=O)c2ccco2)c1 31.6 µM [inhibitor, partial curve]
O=C(O)/C=C/C(=O)Nc1ccc(SC(F)(F)C(F)(F)C(F)(F)F)cc1 50.1 µM [inhibitor, single point]
COc1cc(C2C3=C(CC(C)(C)CC3=O)NC3=C2C(=O)c2ccccc23)ccc1O (stereo not given) 28.2 µM [inhibitor, partial curve]
COc1ccc(Cc2nnc(SCC(=O)N3CCc4ccccc4C3)o2)cc1 11.2 µM [inhibitor, partial curve]
CC1CCN(Cc2c(C(=O)N/N=C/c3cccc(C(F)(F)F)c3)nnn2-c2nonc2N)CC1 12.6 µM [inhibitor, partial curve]
CCCNC(=O)Cn1nc(-c2ccc(C)c(C)c2)c2cnc3ccc(F)cc3c21 12.6 µM [inhibitor, partial curve]
Cc1cc(C)c(S(=O)(=O)N2CCOC2CNC(=O)C(=O)NCCCN2CCOCC2)c(C)c1 (stereo not given) 20 µM [inhibitor, partial curve]
COc1ccc(N2CC(NC(=O)c3ccc(OC(C)C)cc3)CC2=O)cc1 (stereo not given) 11.2 µM [inhibitor, single point]
O=C(CN1CCCc2ccccc21)Nc1ccccc1[N+](=O)[O-] 28.2 µM [inhibitor, partial curve]
Cc1cccc(OC(=O)c2cn(C)nc2C(F)(F)F)c1C 10 µM [inhibitor, partial curve]
CCCNS(=O)(=O)c1ccc(OCC(=O)N2CCc3ccccc3C2)c(C)c1 39.8 µM [inhibitor, single point]
COc1ccc(OCc2cc(C(=O)NCc3nc(C)cs3)no2)c(Cl)c1 31.6 µM [inhibitor, partial curve]
C=CCOC(=O)C1=C[C@@H](C2CCCCC2)C[C@@H](OCc2ccc(CO)cc2)O1 28.2 µM [inhibitor, partial curve]
COc1cccc(-c2ccc(SCC(=O)c3ccccc3)nn2)c1 35.5 µM [inhibitor, partial curve]
CCOc1ccc(N2C(=O)c3cccnc3C2Nc2ccc(F)cc2)cc1 (stereo not given) 31.6 µM [inhibitor, partial curve]
COCCOc1ccc(C(F)(F)F)cc1NC(=O)COC(=O)c1cc([N+](=O)[O-])ccc1N1CCOCC1 12.6 µM [inhibitor, partial curve]
Cc1ccc(SCC(=O)Nc2ncc(C)s2)cc1 39.8 µM [inhibitor, single point]
CCOc1ccc(NC(=O)CC2C(=O)N(c3ccc(OC)cc3)C(=S)N2Cc2ccccn2)cc1 (stereo not given) 35.5 µM [inhibitor, partial curve]
NC(=S)N=Nc1ccc(NN=C(N)N)cc1 28.2 µM [inhibitor, single point]
CC(=O)Oc1cccc(N2C(=O)C3CC=CCC3C2=O)c1 (stereo not given) 31.6 µM [inhibitor, single point]
CCOc1ccc(S(=O)(=O)Nc2cc(Cl)ccc2OC)c2cccnc12 56.2 µM [inhibitor, single point]
O=C(CSCc1ccc(F)cc1)Nc1nc2c(s1)CCCC2 28.2 µM [inhibitor, partial curve]
N#Cc1ccc(OCC(O)CN2CCN(c3ncc(C(F)(F)F)cc3Cl)CC2)cc1 (stereo not given) 39.8 µM [inhibitor, single point]
O=C(Cc1ccc(Cl)cc1Cl)OCC(=O)c1ccc[nH]1 25.1 µM [inhibitor, partial curve]
Cc1ccccc1NCC(=O)N/N=C/C(Br)=C/c1ccccc1 4.47 µM [inhibitor, full curve]
CCc1ccc(CN(C(=O)c2cc(=O)c3ccc(C)cc3o2)C2CCS(=O)(=O)C2)cc1 (stereo not given) 22.4 µM [inhibitor, partial curve]
